Tested on: astrin-raptor binding
Excerpt: Antibodies are described elsewhere (Dalle Pezze et al., 2012b; Sonntag et al., 2012). Further antibodies were from Bethyl, Montgomery, Tex., USA against Histone H3 (#A300-823A), Histone H3-p 510 (#A301-844A), and DDX6/p54 (#A300-461A); from Cell Signaling Technology Inc., Boston, Mass., USA against ATF-4 (#11815), hnRNP-A1 (#8443), YB1 (#9744), HSP90 (#4877), HSP70 (#4867), HSF1 (#4356); from Santa Cruz, Calif., USA against G3BP1 (#sc-81940), astrin (#sc-98605); and from Abcam, Cambridge, UK against Plk1 (#ab17056). All antibodies were used according to the manufacturers' instructions. Monoclonal antibodies for PLA were generated in mice or rats for astrin, mTOR, and raptor by Dr. Elisabeth Kremmer, Helmholtz Zentrum München, Institute of Molecular Immunology, Marchioninistrasse 25, 81377 Munich, Germany. Peptides for antibody raising were made by Peptide Specialty Laboratories (PSL) GmbH, Heidelberg, Germany.
To identify novel mTOR regulators, the inventors immunopurified endogenous mTOR, raptor (mTORC1), and Rictor (mTORC2) from HeLa cells and analysed the immunprecipitates (IPs) by mass spectrometry (MS) as described (Thedieck et al., 2007). […]

Compound	astrin mediated recruitment of raptor to SGs / mTORC1 disassembly (2 mM H2O2)	astrin association with raptor in co-IPs and in situ
OO [H2O2, Hydrogen peroxide]	reproduced those obtained with Arsenite	–
Arsenite	–	strongly increased

From patent US10041933B2, “Modulators of the interaction of astrin and raptor, and uses thereof in cancer therapy” (ALBERT-LUDWIGS-UNIVERSITÄT FREIBURG, priority 2013, dated 2018)
